This is one part of the list. The list includes weakly bound sequences.

The target in this test is T1, MBP-FoxP3dN (UniProt Q99JB6).
T1 sequence: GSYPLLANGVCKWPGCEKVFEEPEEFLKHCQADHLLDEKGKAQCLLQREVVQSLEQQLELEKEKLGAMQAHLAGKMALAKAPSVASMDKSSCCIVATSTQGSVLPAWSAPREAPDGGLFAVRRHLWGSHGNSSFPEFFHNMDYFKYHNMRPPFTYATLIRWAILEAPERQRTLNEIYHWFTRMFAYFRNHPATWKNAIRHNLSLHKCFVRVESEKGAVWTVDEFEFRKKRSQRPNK
Put plainly: PD-seq (MBP pull-down with sequencing). The following applies: 20 mM Tris-HCl pH 7.5, 100 mM NaCl, 1.5 mM MgCl2, 0.4 uM protein, 0.1 uM dsDNA library, 30 min, room temperature, amylose pull-down; high values mean tight binding; double strand, one strand shown.
For “GATGATTGTTCTCCCAGCTGATGAATTGGTTAGGTCGAGTAAACAAATTTTCCTAATCTTTCTGTTCAAGCGCCATCTAC”, the binding signal (RPM ratio (pull-down/input)) came out at 0.755. For “GATGATTGTTCTCCCAGCTGATGAATTATGTGAGTCGAGTAAACAAATTTTCCTAATCTTTCTGTTCAAGCGCCATCTAC” the value was 2.61; for “GATGATTGTTCTCCCAGCTGATGAATTGCGGCGCTCGAGTAAACAAATTTTCCTAATCTTTCTGTTCAAGCGCCATCTAC”, 0.839. The value for “GATGATTGTTCTCCCAGCTGATGAATTCATCCTCTCGAGTAAACAAATTTTCCTAATCTTTCTGTTCAAGCGCCATCTAC” was 0.392. For “GATGATTGTTCTCCCAGCTGATGAATTATGTCGCTCGAGTAAACAAATTTTCCTAATCTTTCTGTTCAAGCGCCATCTAC” the value was 1.12. Regarding “GATGATTGTTCTCCCAGCTGATGAATTGTATAGCTCGAGTAAACAAATTTTCCTAATCTTTCTGTTCAAGCGCCATCTAC”, the binding signal (RPM ratio (pull-down/input)) was 1.05.

On to “GATGATTGTTCTCCCAGCTGATGAATTTCAGCTGTCGAGTAAACAAATTTTCCTAATCTTTCTGTTCAAGCGCCATCTAC”, for which the binding signal (RPM ratio (pull-down/input)) turned out to be 0.363.

“GATGATTGTTCTCCCAGCTGATGAATTCGTACCTTCGAGTAAACAAATTTTCCTAATCTTTCTGTTCAAGCGCCATCTAC”: the binding signal (RPM ratio (pull-down/input)) is 0.484.

In the case of “GATGATTGTTCTCCCAGCTGATGAATTAAAGGCATCGAGTAAACAAATTTTCCTAATCTTTCTGTTCAAGCGCCATCTAC”, the binding signal (RPM ratio (pull-down/input)) came to 0.92. For “GATGATTGTTCTCCCAGCTGATGAATTGCCAAAATCGAGTAAACAAATTTTCCTAATCTTTCTGTTCAAGCGCCATCTAC” the value was 0.373; for “GATGATTGTTCTCCCAGCTGATGAATTCTATCTATCGAGTAAACAAATTTTCCTAATCTTTCTGTTCAAGCGCCATCTAC”, 0.774; for “GATGATTGTTCTCCCAGCTGATGAATTCTCCGGCTCGAGTAAACAAATTTTCCTAATCTTTCTGTTCAAGCGCCATCTAC”, 0.153. Turning to “GATGATTGTTCTCCCAGCTGATGAATTCTGAAACTCGAGTAAACAAATTTTCCTAATCTTTCTGTTCAAGCGCCATCTAC”, the binding signal (RPM ratio (pull-down/input)) was 0.72. For “GATGATTGTTCTCCCAGCTGATGAATTGCAGTCATCGAGTAAACAAATTTTCCTAATCTTTCTGTTCAAGCGCCATCTAC” the value was 1.13; for “GATGATTGTTCTCCCAGCTGATGAATTAAGTGACTCGAGTAAACAAATTTTCCTAATCTTTCTGTTCAAGCGCCATCTAC”, 0.991. The value for “GATGATTGTTCTCCCAGCTGATGAATTCTCGTTGTCGAGTAAACAAATTTTCCTAATCTTTCTGTTCAAGCGCCATCTAC” was 0.561. For “GATGATTGTTCTCCCAGCTGATGAATTCGTGCTGTCGAGTAAACAAATTTTCCTAATCTTTCTGTTCAAGCGCCATCTAC” the value was 0.615; for “GATGATTGTTCTCCCAGCTGATGAATTCCAATGCTCGAGTAAACAAATTTTCCTAATCTTTCTGTTCAAGCGCCATCTAC”, 0.531. As for “GATGATTGTTCTCCCAGCTGATGAATTATCTGGGTCGAGTAAACAAATTTTCCTAATCTTTCTGTTCAAGCGCCATCTAC”, the binding signal (RPM ratio (pull-down/input)) is 0.194. With “GATGATTGTTCTCCCAGCTGATGAATTCATAACGTCGAGTAAACAAATTTTCCTAATCTTTCTGTTCAAGCGCCATCTAC”, the binding signal (RPM ratio (pull-down/input)) stood at 0.394. As to “GATGATTGTTCTCCCAGCTGATGAATTGGACGCCTCGAGTAAACAAATTTTCCTAATCTTTCTGTTCAAGCGCCATCTAC”, the binding signal (RPM ratio (pull-down/input)) amounted to 0.645.

As to “GATGATTGTTCTCCCAGCTGATGAATTTCGGTGGTCGAGTAAACAAATTTTCCTAATCTTTCTGTTCAAGCGCCATCTAC”, the binding signal (RPM ratio (pull-down/input)) worked out at 0.448. The value for “GATGATTGTTCTCCCAGCTGATGAATTTCAAAGCTCGAGTAAACAAATTTTCCTAATCTTTCTGTTCAAGCGCCATCTAC” was 0.231; that for “GATGATTGTTCTCCCAGCTGATGAATTGGGAAACTCGAGTAAACAAATTTTCCTAATCTTTCTGTTCAAGCGCCATCTAC” was 0.614; that for “GATGATTGTTCTCCCAGCTGATGAATTCAAATATTCGAGTAAACAAATTTTCCTAATCTTTCTGTTCAAGCGCCATCTAC” was 0.431. The value for “GATGATTGTTCTCCCAGCTGATGAATTTCATATATCGAGTAAACAAATTTTCCTAATCTTTCTGTTCAAGCGCCATCTAC” was 0.715.

On to “GATGATTGTTCTCCCAGCTGATGAATTCTATTGATCGAGTAAACAAATTTTCCTAATCTTTCTGTTCAAGCGCCATCTAC”, for which the binding signal (RPM ratio (pull-down/input)) stood at 4.86. For “GATGATTGTTCTCCCAGCTGATGAATTACAGTTTTCGAGTAAACAAATTTTCCTAATCTTTCTGTTCAAGCGCCATCTAC” the value was 0.719. For “GATGATTGTTCTCCCAGCTGATGAATTCGGAATTTCGAGTAAACAAATTTTCCTAATCTTTCTGTTCAAGCGCCATCTAC” the value was 1.28; for “GATGATTGTTCTCCCAGCTGATGAATTAGGTGCGTCGAGTAAACAAATTTTCCTAATCTTTCTGTTCAAGCGCCATCTAC”, 1.02; for “GATGATTGTTCTCCCAGCTGATGAATTATCCGCATCGAGTAAACAAATTTTCCTAATCTTTCTGTTCAAGCGCCATCTAC”, 0.979. The value for “GATGATTGTTCTCCCAGCTGATGAATTCCCCGCATCGAGTAAACAAATTTTCCTAATCTTTCTGTTCAAGCGCCATCTAC” was 0.735.

With “GATGATTGTTCTCCCAGCTGATGAATTCCAGGCATCGAGTAAACAAATTTTCCTAATCTTTCTGTTCAAGCGCCATCTAC”, the binding signal (RPM ratio (pull-down/input)) was determined as 0.578.

As for “GATGATTGTTCTCCCAGCTGATGAATTCCCAGTTTCGAGTAAACAAATTTTCCTAATCTTTCTGTTCAAGCGCCATCTAC”, the binding signal (RPM ratio (pull-down/input)) worked out at 0.263. On to “GATGATTGTTCTCCCAGCTGATGAATTAGTACCCTCGAGTAAACAAATTTTCCTAATCTTTCTGTTCAAGCGCCATCTAC”, for which the binding signal (RPM ratio (pull-down/input)) was found to be 0.735. For “GATGATTGTTCTCCCAGCTGATGAATTTACGCTCTCGAGTAAACAAATTTTCCTAATCTTTCTGTTCAAGCGCCATCTAC” the value was 0.7; for “GATGATTGTTCTCCCAGCTGATGAATTTGTATGTTCGAGTAAACAAATTTTCCTAATCTTTCTGTTCAAGCGCCATCTAC”, 6.63. The value for “GATGATTGTTCTCCCAGCTGATGAATTGTCTCCGTCGAGTAAACAAATTTTCCTAATCTTTCTGTTCAAGCGCCATCTAC” was 0.318.

For the sequence “GATGATTGTTCTCCCAGCTGATGAATTTTTCAAGTCGAGTAAACAAATTTTCCTAATCTTTCTGTTCAAGCGCCATCTAC”, the binding signal (RPM ratio (pull-down/input)) was found to be 0.207. The value for “GATGATTGTTCTCCCAGCTGATGAATTTGAGGCCTCGAGTAAACAAATTTTCCTAATCTTTCTGTTCAAGCGCCATCTAC” was 0.709. The value for “GATGATTGTTCTCCCAGCTGATGAATTACACGACTCGAGTAAACAAATTTTCCTAATCTTTCTGTTCAAGCGCCATCTAC” was 0.417. Consider “GATGATTGTTCTCCCAGCTGATGAATTGAGGTGCTCGAGTAAACAAATTTTCCTAATCTTTCTGTTCAAGCGCCATCTAC”, for which the binding signal (RPM ratio (pull-down/input)) came to 0.488. For “GATGATTGTTCTCCCAGCTGATGAATTAGTGTCCTCGAGTAAACAAATTTTCCTAATCTTTCTGTTCAAGCGCCATCTAC” the value was 2.09; for “GATGATTGTTCTCCCAGCTGATGAATTAGTGAGCTCGAGTAAACAAATTTTCCTAATCTTTCTGTTCAAGCGCCATCTAC”, 0.85; for “GATGATTGTTCTCCCAGCTGATGAATTTTATGTTTCGAGTAAACAAATTTTCCTAATCTTTCTGTTCAAGCGCCATCTAC”, 2.25. For “GATGATTGTTCTCCCAGCTGATGAATTCCGTACATCGAGTAAACAAATTTTCCTAATCTTTCTGTTCAAGCGCCATCTAC”, the binding signal (RPM ratio (pull-down/input)) came out at 0.592. For “GATGATTGTTCTCCCAGCTGATGAATTGGTTGGATCGAGTAAACAAATTTTCCTAATCTTTCTGTTCAAGCGCCATCTAC” the value was 0.551; for “GATGATTGTTCTCCCAGCTGATGAATTAACCGTCTCGAGTAAACAAATTTTCCTAATCTTTCTGTTCAAGCGCCATCTAC”, 0.326; for “GATGATTGTTCTCCCAGCTGATGAATTGCCGAGTTCGAGTAAACAAATTTTCCTAATCTTTCTGTTCAAGCGCCATCTAC”, 0.608. As for “GATGATTGTTCTCCCAGCTGATGAATTAGATATGTCGAGTAAACAAATTTTCCTAATCTTTCTGTTCAAGCGCCATCTAC”, the binding signal (RPM ratio (pull-down/input)) was determined as 1.29. For “GATGATTGTTCTCCCAGCTGATGAATTGTTCGCCTCGAGTAAACAAATTTTCCTAATCTTTCTGTTCAAGCGCCATCTAC” the value was 0.653. Regarding “GATGATTGTTCTCCCAGCTGATGAATTTACTCATTCGAGTAAACAAATTTTCCTAATCTTTCTGTTCAAGCGCCATCTAC”, the binding signal (RPM ratio (pull-down/input)) stood at 0.518. “GATGATTGTTCTCCCAGCTGATGAATTTGCATTCTCGAGTAAACAAATTTTCCTAATCTTTCTGTTCAAGCGCCATCTAC”: the binding signal (RPM ratio (pull-down/input)) was 6.29. For “GATGATTGTTCTCCCAGCTGATGAATTTCAAGCTTCGAGTAAACAAATTTTCCTAATCTTTCTGTTCAAGCGCCATCTAC” the value was 0.258; for “GATGATTGTTCTCCCAGCTGATGAATTTCGGGATTCGAGTAAACAAATTTTCCTAATCTTTCTGTTCAAGCGCCATCTAC”, 0.36. The value for “GATGATTGTTCTCCCAGCTGATGAATTTGGACCCTCGAGTAAACAAATTTTCCTAATCTTTCTGTTCAAGCGCCATCTAC” was 0.478. The value for “GATGATTGTTCTCCCAGCTGATGAATTAAGCACCTCGAGTAAACAAATTTTCCTAATCTTTCTGTTCAAGCGCCATCTAC” was 0.986.

For the sequence “GATGATTGTTCTCCCAGCTGATGAATTAACTACATCGAGTAAACAAATTTTCCTAATCTTTCTGTTCAAGCGCCATCTAC”, the binding signal (RPM ratio (pull-down/input)) stood at 0.461. For “GATGATTGTTCTCCCAGCTGATGAATTAGCGATGTCGAGTAAACAAATTTTCCTAATCTTTCTGTTCAAGCGCCATCTAC” the value was 0.61. For “GATGATTGTTCTCCCAGCTGATGAATTACATAGATCGAGTAAACAAATTTTCCTAATCTTTCTGTTCAAGCGCCATCTAC” the value was 0.393. On to “GATGATTGTTCTCCCAGCTGATGAATTCCTCCCATCGAGTAAACAAATTTTCCTAATCTTTCTGTTCAAGCGCCATCTAC”, for which the binding signal (RPM ratio (pull-down/input)) is 0.273. The value for “GATGATTGTTCTCCCAGCTGATGAATTTAACTTGTCGAGTAAACAAATTTTCCTAATCTTTCTGTTCAAGCGCCATCTAC” was 0.475. The value for “GATGATTGTTCTCCCAGCTGATGAATTTCCTATTTCGAGTAAACAAATTTTCCTAATCTTTCTGTTCAAGCGCCATCTAC” was 0.293.

The record behind these values is article PMC12820563.
